# Reference: publication PMC4336329 (PLoS ONE, 2015)
# About 14,000 (4.5%) of roughly 310,000 compounds showed an effect of 50% or more. The effect is printed as a negative number. The list shows a part of the results.
# Target: human ether-à-go-go-related gene (hERG) potassium channel (human, UniProt Q12809)
# Assay: primary screen, population patch clamp on CHO cells stably expressing hERG
# 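Note: peak tail current of the secondary pulse compared with the same well before compound.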
# Chain of human ether-à-go-go-related gene (hERG) potassium channel (Q12809 whole entry, looked up): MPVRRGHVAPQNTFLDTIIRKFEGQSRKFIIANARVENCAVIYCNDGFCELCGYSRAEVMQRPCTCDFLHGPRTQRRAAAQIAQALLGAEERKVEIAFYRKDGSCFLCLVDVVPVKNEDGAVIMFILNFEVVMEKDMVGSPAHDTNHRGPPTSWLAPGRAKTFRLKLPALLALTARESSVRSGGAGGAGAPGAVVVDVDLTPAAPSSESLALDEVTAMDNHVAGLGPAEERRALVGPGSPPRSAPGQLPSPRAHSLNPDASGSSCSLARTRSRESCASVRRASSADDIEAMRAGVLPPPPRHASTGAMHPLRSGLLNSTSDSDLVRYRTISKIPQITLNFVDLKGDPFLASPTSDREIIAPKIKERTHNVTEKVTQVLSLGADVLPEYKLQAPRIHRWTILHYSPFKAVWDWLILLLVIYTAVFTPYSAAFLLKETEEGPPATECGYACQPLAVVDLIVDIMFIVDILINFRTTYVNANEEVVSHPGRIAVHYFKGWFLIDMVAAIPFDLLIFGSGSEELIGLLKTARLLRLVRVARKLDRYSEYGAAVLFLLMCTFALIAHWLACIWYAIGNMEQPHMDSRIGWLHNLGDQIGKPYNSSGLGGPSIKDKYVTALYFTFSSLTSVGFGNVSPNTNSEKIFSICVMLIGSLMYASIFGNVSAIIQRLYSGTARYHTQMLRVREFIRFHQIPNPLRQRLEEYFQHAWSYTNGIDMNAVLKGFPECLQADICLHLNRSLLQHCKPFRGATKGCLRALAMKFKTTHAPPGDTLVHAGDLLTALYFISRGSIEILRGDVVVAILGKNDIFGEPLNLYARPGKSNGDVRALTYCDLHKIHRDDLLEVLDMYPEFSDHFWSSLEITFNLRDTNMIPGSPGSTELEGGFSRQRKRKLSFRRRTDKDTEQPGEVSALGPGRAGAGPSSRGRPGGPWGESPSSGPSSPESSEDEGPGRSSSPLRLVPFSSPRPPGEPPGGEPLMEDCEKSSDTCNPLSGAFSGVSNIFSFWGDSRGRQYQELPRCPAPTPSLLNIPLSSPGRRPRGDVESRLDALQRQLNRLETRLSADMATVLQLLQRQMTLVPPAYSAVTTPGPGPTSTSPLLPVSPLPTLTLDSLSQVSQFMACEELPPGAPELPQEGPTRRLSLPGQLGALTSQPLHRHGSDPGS
row,Compound,"hERG current change (%, negative = inhibition) at 10uM [%]"
1,O=S(=O)(Nc1ccc(-c2csc(-c3ccccc3)n2)cc1)c1ccc(F)cc1,11.3
2,O=C(COc1ccc([N+](=O)[O-])cc1)Nc1ccc(S(=O)(=O)N2CCOCC2)cc1,-53.8
3,CCOC(=O)N1CCN(C(=O)COc2cccc3c2CCN(Cc2cccc(C)c2)C3=O)CC1,-53.6
4,Cc1ccc(S(=O)(=O)CC(O)COc2ccc(C#N)cc2)cc1 (centres unmarked),-37.6
5,N#Cc1ccc(-c2cn3c(n2)SCC3)cc1,-1.01
6,CCN(Cc1ccccc1)S(=O)(=O)c1ccc(S(=O)(=O)N2CCN(CCC#N)CC2)cc1,5.99
7,CCc1cccc2c(SC(C)C(=O)NCC3CCCO3)nc(-c3ccccc3)nc12 (centres unmarked),7.04
8,CCCc1nnc(SCC(=O)N(CC)CC)n1CC1CCCO1 (centres unmarked),21.9
9,Cc1cc(CN2C(=O)c3ccccc3C2=O)cc(N2CCOCC2)c1,-18.9
10,Cc1ccc(Nc2cc(C)nc(NCc3ccccc3)n2)cc1,-5.08
11,NNC(=O)c1nn(-c2ccc(Cl)cc2)ccc1=O,-14.2
12,O=C1NN=C(c2ccc(Cl)cc2)CC1c1c[nH]c2ccccc12 (centres unmarked),45.6
13,COc1ccc(C)cc1NC(=O)c1ccc2c(c1)OCO2,-3.35
14,Cc1cc2c(c(=O)n1C)C(C(C)C)C(C#N)=C(N)O2 (centres unmarked),8.61
15,Cc1[nH]nc2c1C1(CCOCC1)C(C#N)=C(N)O2,-56.7
16,Cc1cc(NC(=O)CSc2nc3ccsc3c(=O)n2CCCC(=O)NCCc2ccccc2)no1,-1.03
17,CCC(=O)c1cn(Cc2ccccc2C#N)c2ccccc12,-24.2
18,Cc1c(C2(O)CCCCC2)[nH]c2ncccc12,2.95
19,O=C(O)c1ccc(/C=N/NC(=O)c2cc3c(ccc4ccccc43)o2)cc1,-0.13

row,Compound,"hERG current change (%, negative = inhibition) at 10uM [%]"
1,CCOC(=O)c1ccc(NC(=S)NNC(=O)c2cc(-c3cccnc3)nc3ccccc23)cc1,20.9
2,O=C1c2ccccc2C(Nc2ccc(Cl)cc2)N1CCN1CCOCC1 (centres unmarked),-24.7
3,CSc1n[nH]c(NC(=O)c2c(-c3c(Cl)cccc3Cl)noc2C)n1,2.84
4,O=C(NCCc1ccc(Cl)cc1)c1nnc(Cc2ccc(Cl)cc2)o1,10.1
5,CC(=O)N(CCC(Cc1ccccc1)c1ccco1)Cc1ccco1 (centres unmarked),-28.4
6,Cc1cccc2[nH]c(CN(C)C(=O)CC3C(=O)NCCN3CC(C)(C)C)nc12 (centres unmarked),3.23
7,N=c1nc(-c2ccccc2)ccn1O,11.9
8,O=C(Nc1ccc(Cl)cc1)N1CCC(c2ccccc2)C1 (centres unmarked),-36.5
9,COc1cccc(NC(=O)CN2C(=O)NC(C)(c3ccc(C)cc3)C2=O)c1 (centres unmarked),-6.71
10,CCOc1cc(NC(=S)NCc2ccco2)c(OCC)cc1NC(=O)C1CC1,7.87
11,COc1ccc(N(CC(=O)Nc2cccnc2)S(C)(=O)=O)cc1,-19.6
12,CCN(CC(=O)Nc1ccc(NC(C)=O)cc1)C(=O)/C=C/c1ccccc1,-4.49
13,CCOC(=O)C1=C(COC(=O)c2ccc([N+](=O)[O-])o2)NC(=O)NC1C (centres unmarked),-7.36
14,C=CCn1c(O)c(N=NC(=S)Nc2ccccc2F)c2cc(S(=O)(=O)N3CCOCC3)ccc21,13.3
15,Cc1ccc(C)c(SCC(=O)Nc2nnc(-c3ccccc3)o2)c1,14.1
16,CCN(C(=O)COC(=O)c1c2c(nc3ccccc13)/C(=C/c1ccccc1)CC(C)C2)C1CCS(=O)(=O)C1 (centres unmarked),-0.31
17,CCOc1ccc(S(=O)(=O)Nc2ccc(C(=O)NNC(=O)c3ccncc3)cc2)cc1,10.3
18,O=C(/C=C/c1cccs1)N1CCN(c2ccc(O)cc2)CC1,-16.9
19,CCCc1nnc(NC(=O)CCC(=O)NCCc2ccc(Cl)cc2)s1,-1.96

row,Compound,"hERG current change (%, negative = inhibition) at 10uM [%]"
1,CCCCOc1ccc(N(CC(=O)NC2CCCC2)C(=O)CCC(=O)Nc2ccccn2)cc1,17.3
2,COc1cc2[nH]c(=S)nc(NCC3CCCO3)c2cc1OC (centres unmarked),1.17
3,O=C(CN1C(=O)NC2(CCCCC2)C1=O)Oc1ccc2c(C(F)(F)F)cc(=O)oc2c1,13.8
4,CCC(C)NCCOCCOc1ccc(C)cc1OC.O=C(O)C(=O)O (centres unmarked),-1.59
5,COc1cccc(N/C(SC)=C(/C#N)C(=O)NCc2cccs2)c1,-7.85
6,COc1ccc(N2CCN(CCCNC(=O)CCC(=O)N3CCOc4ccc(Cl)cc43)CC2)cc1,-70.4
7,C=CCn1c(O)c(N=NC(=O)CNC(=O)/C=C/c2ccco2)c2ccccc21,-58.2
8,Cc1ccc2c(C)c(C(=O)N(Cc3cccs3)C3CCS(=O)(=O)C3)oc2c1 (centres unmarked),-20.8
9,O=C(NC1CCCCCCC1)c1ccc(F)cc1,4.61
10,COc1ccc(CCC(=O)NCCOc2ccc(C)cc2)cc1,2.1
11,CC1CCCN(C(=O)CN2C(=O)C(C)Oc3ccccc32)C1 (centres unmarked),8.2
12,O=C(CCNC(=O)c1ccccc1Cl)NCC12CC3CC(CC(C3)C1)C2,6.76
13,Cc1ccc([C@@H]2[C@@H]3C(=O)N(C)C(=O)[C@@H]3[C@]3(C)C(=O)N(CCO)CC(=O)N23)o1,-23.6
14,CCOC(=O)Cn1nc(/C=C/c2ccc(C(C)C)cc2)ccc1=O,-39.4
15,O=C(Cn1c(=O)n(Cc2ccco2)c(=O)c2cc(Cl)ccc21)NCC1CCCO1 (centres unmarked),-31.9
16,CCc1ccccc1NC(=O)CCC(=O)N1CCSc2ccccc21,-14.7
17,NC(N)=NCCC[C@H](NC(=O)OCc1ccccc1)C(=O)O,24.5
18,CCOc1ccccc1NC(=O)CN1C(=O)CSC(C)C1=O (centres unmarked),18.7
